Values joined by “and” are separate entries in the source; they are usually repeats but may differ in a detail not shown here. Identical values can stand only once. Hit rate of the full screen: of about 100,000 compounds, about 250 (0.25%) were called active. This list was built around the results that the source calls inconclusive (neither active nor inactive); the mix of calls is not that of the screen. Calls follow the shape of the dose curve; as a rule, active = well fitted inhibition curve with a large enough effect; inconclusive = small, poorly fitted or top-dose-only effect; inactive = flat fitted curve, though single readings scatter. No potency is given beside an inconclusive call; the fits are too rough.
Target: Alanine aminotransferase 2 (Homo sapiens) (UniProt Q8TD30)
Chain of UniProt Q8TD30 (Q8TD30 whole entry, looked up): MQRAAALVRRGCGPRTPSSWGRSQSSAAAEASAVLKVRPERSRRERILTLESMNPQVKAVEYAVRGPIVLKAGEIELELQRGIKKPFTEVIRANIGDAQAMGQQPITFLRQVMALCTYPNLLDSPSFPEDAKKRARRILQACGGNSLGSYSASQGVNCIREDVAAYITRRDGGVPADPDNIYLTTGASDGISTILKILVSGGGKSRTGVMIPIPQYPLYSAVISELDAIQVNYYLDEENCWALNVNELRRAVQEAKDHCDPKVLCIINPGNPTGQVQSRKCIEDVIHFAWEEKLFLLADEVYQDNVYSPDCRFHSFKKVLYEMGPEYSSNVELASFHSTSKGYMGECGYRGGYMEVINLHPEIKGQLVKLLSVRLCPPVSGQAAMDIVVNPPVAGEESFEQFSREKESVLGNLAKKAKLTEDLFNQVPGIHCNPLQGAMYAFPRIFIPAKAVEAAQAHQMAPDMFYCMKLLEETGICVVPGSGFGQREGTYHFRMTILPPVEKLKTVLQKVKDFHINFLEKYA
Experiment: Primary qHTS assay for inhibitors of Glutamate pyruvate transaminase 2 (GPT2); also: nearly all actives have a fitted effect of over 60% in size
Settings: Recombinant GPT2, coupled pyruvate oxidase/HRP Amplex Red fluorescence; activity change, negative = inhibition: at 57.7 µM (top of the series) unless noted; series mostly up to 57.7 µM
Procedure, shortened: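 Fluorescence read-out: pyruvate from GPT2 turnover coupled to pyruvate oxidase, HRP and Amplex Red (0.2mM ThPP, 0.2U/mL PO and HRP, 50uM Amplex final). Substrates 250uM a-KG, 2mM L-alanine; enzyme 10ng/uL; 30 min RT.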
% is scaled to controls: 0 for no effect and ±100 for the full control effect; potency is read from the fitted curve at half-maximal effect; tags tell the direction and shape of the fitted curve.

Question: Which Potency does the source give for `O=C1NC(C(=O)NCc2cccnc2Oc2ccccc2F)CO1` (stereo not given) here?
Answer: inconclusive [inhibitor, single point]

Question: For `CCOc1ccccc1CN1CCN(c2ncnc3[nH]ccc23)CC1CCO` (stereo not given), which outcome is on record?
Answer: inactive [at 11.5 µM]

Question: With `COc1ccc(CC(=O)NCC(=O)N2CCN(c3ccccn3)CC2)cc1` as the compound, how does the Potency read?
Answer: inconclusive [inhibitor, single point]

Question: Which Potency does the source give for `CN(C)CC(=O)N1Cc2ccccc2CC2(CCCN(CC3CCNCC3)C2)C1` (stereo not given) here?
Answer: inconclusive [inhibitor, full curve, poor fit]

Question: How did the Potency turn out when `CN(C)S(=O)(=O)N1CCC(Nc2cccnc2)C1` (stereo not given) was run?
Answer: inconclusive [inhibitor, single point]

Question: For `O=S(=O)(c1ccccc1)N(CC(F)(F)F)c1ccc(C(O)(C(F)(F)F)C(F)(F)F)cc1`, which Potency is on record?
Answer: inconclusive [inhibitor, single point]

Question: How did the “outcome” value turn out when `CN(C)Cc1ccc(C(=O)N[C@@H]2COCC[C@@H]2OCC(=O)O)o1` was run?
Answer: inactive

Question: `COc1cccc(CN2CCCCC23Cc2ccccc2NC3=O)c1` (stereo not given) was tested. Which Potency did it give?
Answer: inconclusive [inhibitor, partial curve, poor fit]

Question: How did the Potency turn out when `CCc1nc2c(c(-c3ccc(Cl)cc3)n1)CCN(C(=O)c1ccc(C)cc1)CC2` was run?
Answer: inconclusive [inhibitor, single point]

Question: With `O=C(Nc1cccc(C(F)(F)F)c1)N[C@H]1[C@H](O)[C@@H](Oc2ccccc2)[C@@H]2OC[C@H]1O2` as the compound, how does the Potency read?
Answer: inconclusive [inhibitor, partial curve, poor fit]

Question: Which “activity change, negative = inhibition” value does the source give for `O=C(C1CCN(C(=O)N2CC3CC(C2)[C@H]2CCCC(=O)N2C3)CC1)N1CCc2ccccc2C1` (stereo not given in full) here?
Answer: inactive: -4.65%

Question: How did the Potency turn out when `COc1cccc(C(C)N(C)Cc2nc(-c3cccs3)no2)c1` (stereo not given) was run?
Answer: inconclusive [inhibitor, single point]

Question: With `COCCn1c(C)nnc1-c1cc(Nc2ccccc2)ccn1` as the compound, how does the Potency read?
Answer: inconclusive [inhibitor, single point]

Question: For `O=C(c1ccco1)N1CCC2(CC1)CC(N(C(=O)c1ccccc1)C1CC1)CCO2` (stereo not given), which Potency is on record?
Answer: inconclusive [inhibitor, single point]

Question: With `COc1ccccc1CCC(=O)N1CCC2(CC1)NC(=O)N(c1ccccc1)N2` as the compound, how does the Potency read?
Answer: inconclusive [inhibitor, single point]

Question: For `CN1CCN(Cc2nnc(C(=O)N3CCC[C@@H]3C(c3ccccc3)c3ccccc3)n2-c2ccccc2)CC1`, which Potency is on record?
Answer: inconclusive [inhibitor, partial curve, poor fit]

Question: Which Potency does the source give for `COCC(=O)N1CC[C@H](c2nc3ccc(C)cc3[nH]2)C1` here?
Answer: inconclusive [inhibitor, full curve, poor fit]

Question: How did the Potency turn out when `Cc1ccc(C(=O)N[C@H]2CO[C@H]3[C@@H]2OC[C@@H]3Nc2nccc(-c3ccc4c(c3)OCO4)n2)cc1` was run?
Answer: inconclusive [inhibitor, partial curve, poor fit]

Question: With `COc1ccc(-c2ccc3ncc(Nc4ccc(C(N)=O)cc4)n3n2)cn1` as the compound, how does the Potency read?
Answer: inconclusive [inhibitor, full curve, poor fit]

Question: With `CCN1C(=O)Cc2cc(C(=O)NCc3cc(OC)ccc3OC)ccc21` as the compound, how does the Potency read?
Answer: inconclusive [inhibitor, single point]

Question: How did the “outcome” value turn out when `COc1cc(F)ccc1-c1ccnc2nc(CC(C)C)nn12` was run?
Answer: inactive

Question: Which “outcome” value does the source give for `CCN1CC2(CCN(C(=O)COC(C)C)CC2)CC(c2ccccc2)C1=O` (stereo not given) here?
Answer: inactive

Question: How did the Potency turn out when `O=C(c1nccc2ccccc12)N1CCC2(CC1)CC(O)CCO2` (stereo not given) was run?
Answer: inconclusive [inhibitor, single point]

Question: With `CC(C)NS(=O)(=O)c1ccc2c(c1)nc(-c1ccc(CO)o1)n2C(C)C` as the compound, how does the Potency read?
Answer: inconclusive [inhibitor, full curve, poor fit]

Question: Which Potency does the source give for `COc1ccc(C2=NOC3(CCCN(C(=O)C4CCCCC4)C3)C2)cc1` (stereo not given) here?
Answer: inconclusive [inhibitor, single point]

Question: `COc1ccc(-c2ccc3ncc(Nc4ccnc(N5CCOCC5)c4)n3n2)cc1OC` was tested. Which Potency did it give?
Answer: inconclusive [inhibitor, single point]

Question: For `C#CCN(C)CC[C@@H]1CC[C@H](O)[C@@H](C(=O)NCCOC)O1`, which Potency is on record?
Answer: inconclusive [inhibitor, single point]

Question: For `COc1ccc(Nc2ccnc(N3CCN([S+](=O)([O-])c4cccc(C(F)(F)F)c4)CC3)n2)cc1`, which Potency is on record?
Answer: inconclusive [inhibitor, single point]

Question: For `Cn1nccc1C(=O)N1CCC(Oc2cccc(F)c2)C1` (stereo not given), which Potency is on record?
Answer: inconclusive [inhibitor, single point]

Question: For `CNC(=O)c1ccccc1Nc1nc(Nc2ccc(N3CCOCC3)cc2OC)ncc1Cl`, which Potency is on record?
Answer: active: 10.9 µM and active: 7.08 µM

Question: How did the Potency turn out when `Cc1cc(C(=O)N[C@@H]2C[C@H](Cn3cc(CN(C)C)nn3)[C@@H](O)[C@H]2O)c(C)o1` was run?
Answer: inconclusive [inhibitor, partial curve, poor fit]

Question: `O=C1NCCCN1C1CCN(Cc2ccccn2)CC1` was tested. Which Potency did it give?
Answer: inconclusive [inhibitor, single point]

Question: For `Cc1ccsc1CN1CCCCCNC(=O)[C@@H]2CCC[C@@H]21`, which Potency is on record?
Answer: inconclusive [inhibitor, single point]

Question: With `CN1CC(=O)N(C2CCCC2)Cc2c(NCCc3ccc(F)cc3)ncnc21` as the compound, how does the Potency read?
Answer: inconclusive [inhibitor, single point]

Question: How did the Potency turn out when `CC(=O)NC[C@H]1O[C@@H](CC(=O)N(C)Cc2ccccc2)[C@H](O)[C@@H]1O` was run?
Answer: inconclusive [inhibitor, partial curve, poor fit]

Question: With `CC(C)(Oc1nn(CC2CCOCC2)c2ccccc12)C(=O)NCc1ccncc1` as the compound, how does the “activity change, negative = inhibition” value read?
Answer: inactive: -1.24% [at 88.5 µM]

Question: `O=C(NC[C@H]1O[C@@H]2C[C@@H](CC(=O)N3CCOCC3)O[C@@H]2[C@@H]1O)Nc1cccnc1` was tested. Which Potency did it give?
Answer: inconclusive [inhibitor, partial curve]

Question: For `COc1ccc(CN2CCC3(COc4ncccc4[S+](=O)([O-])N3)C2)cc1` (stereo not given), which Potency is on record?
Answer: inconclusive [inhibitor, single point]

Question: Which Potency does the source give for `COc1ccc(CCNC(=O)c2nc3sccn3c2-c2ccc(C(F)(F)F)cc2)cc1` here?
Answer: inconclusive [inhibitor, single point]

Question: How did the Potency turn out when `CC1(c2cccnc2)N(Cc2ccccc2)C(=O)OC12CCN(C(=O)c1cccc(Cl)c1)CC2` (stereo not given) was run?
Answer: inconclusive [inhibitor, single point]

Question: `CCCN1CCC2(CCN(C(=O)c3ccc(Cl)cc3)CC2)Oc2ccccc21` was tested. Which “activity change, negative = inhibition” value did it give?
Answer: inactive: 0.961%

Question: For `O=C(NC1CCN(c2cc(-c3cccs3)[nH]n2)C1)c1ccc(F)c(F)c1` (stereo not given), which Potency is on record?
Answer: inconclusive [inhibitor, partial curve, poor fit]

Question: Which “outcome” value does the source give for `COc1ccc(-c2cc3c(=O)n(CCNC(=O)c4ccoc4)ccn3n2)cc1` here?
Answer: inactive

Question: Which Potency does the source give for `COCCNC(=O)c1ccc2nnc(-c3cc(C(F)(F)F)cc(C(F)(F)F)c3)n2c1` here?
Answer: inconclusive [inhibitor, single point]

Question: `Cc1cc(C(=O)N2CCCCC2)c2c(C3CCCNC3)noc2n1` (stereo not given) was tested. Which “outcome” value did it give?
Answer: inactive

Question: How did the Potency turn out when `COCCN1C(=O)CO[C@H]2CN(S(C)(=O)=O)C[C@H]21` was run?
Answer: inconclusive [inhibitor, single point]

Question: Which Potency does the source give for `CNC(=O)[C@@H](c1ccccc1)N1CCc2cc(OC)c(OC)cc2[C@@H]1CCc1ccc(C(F)(F)F)cc1` here?
Answer: inconclusive [inhibitor, single point]

Question: How did the Potency turn out when `O=C(NC[C@H]1COCc2nc3ccccc3n21)c1cccnc1` was run?
Answer: inconclusive [inhibitor, full curve, poor fit]

Question: Which Potency does the source give for `CN1[C@@H]2CC[C@H]1CC(OC(=O)c1c[nH]c3ccccc13)C2` (stereo not given in full) here?
Answer: inconclusive [inhibitor, single point]

Question: How did the Potency turn out when `Cc1ccc(CN2C[C@]34C=C[C@H](O3)C(C(=O)N(C)Cc3ccsc3)C4C2=O)cc1C` (stereo not given in full) was run?
Answer: inconclusive [inhibitor, full curve, poor fit]

Question: `CCOC(=O)C1(Cc2ccc(F)cc2F)CCCN(C(=O)c2cccnc2SC)C1` (stereo not given) was tested. Which Potency did it give?
Answer: inconclusive [inhibitor, full curve, poor fit]

Question: For `COCCC(=O)N1CCN(C(=O)N2CC3CC(C2)[C@H]2CCCC(=O)N2C3)CC1` (stereo not given in full), which Potency is on record?
Answer: inconclusive [inhibitor, single point]

Question: `COc1ccc(NC(=O)N2CCc3c(C(=O)NCCN4CCCCCC4)cccc32)cc1` was tested. Which “activity change, negative = inhibition” value did it give?
Answer: inactive: 2.19%

Question: How did the Potency turn out when `CCc1noc(-c2cn(C3CCN(C(=O)COc4cccc(C)c4)CC3)nn2)n1` was run?
Answer: inconclusive [inhibitor, single point]

Question: With `O=C(c1cn2cc(-c3ccccc3)sc2n1)N1CCCCC1` as the compound, how does the Potency read?
Answer: inconclusive [inhibitor, single point]

Question: `COc1ccccc1-c1cccc(C(=O)N2CCC[C@H]2C(=O)NCc2ccc(C(F)(F)F)cc2)c1` was tested. Which “activity change, negative = inhibition” value did it give?
Answer: inactive: -8.26%

Question: For `Cn1c(CNC(=O)c2ccc3nccn3c2)nc2cc(C(F)(F)F)ccc21`, which Potency is on record?
Answer: inconclusive [inhibitor, full curve, poor fit]

Question: For `COCCn1c(C)cnc1CC1CCCN(Cc2ccc(C#N)cc2)C1` (stereo not given), which “outcome” value is on record?
Answer: inactive

Question: With `CCCCn1c(=O)c(C(=O)NCCc2ccccc2F)nc2cccnc21` as the compound, how does the Potency read?
Answer: inconclusive [inhibitor, single point]

Question: For `CC[C@H]1OC(=O)[C@H](C)[C@@H](O[C@H]2C[C@@](C)(OC)[C@@H](O)[C@H](C)O2)[C@H](C)[C@@H](O[C@H]2O[C@H](C)C[C@H](N(C)C)[C@H]2O)[C@](C)(O)C[C@@H](C)C(=O)[C@H](C)[C@@H](O)[C@]1(C)O`, which “activity change, negative = inhibition” value is on record?
Answer: inactive: -20.7% [at 27.3 µM]

Source: PubChem BioAssay AID1671188 (National Center for Advancing Translational Sciences (NCATS), 2021)
